Numbering of substitutions follows the chain as printed.
B1: ABTx052 (antibody, human IgG1, kappa)
heavy: QVQLVQSGAAVKKPGESLKISCKGSGYRFTSYWIGWVRQMPGKGLEWMGIIYPGDSDTRYSPSFQGQVTISAGKSISTAYLQWSSLKASDTAMYYCARHGRGYNGYEGAFDIWGQGTMVTVSS[human IgG1 constant region not written out]
light: AIQLTQSPSSLSASVGDRVTITCRASQGISSALAWYQQKPGKAPKLLIYDASSLESGVPSRFSGSGSGTDFTLTISSLQPEDFATYYCQQFNSYPLTFGGGTKVEIKRTVAAPSVFIFPPSDEQLKSGTASVVCLLNNFYPREAKVQWKVDNALQSGNSQESVTEQDSKDSTYSLSSTLTLSKADYEKHKVYACEVTHQGLSSPVTKSFNRGEC
notes: human IgG1; also called mAb-7; mAB-7
B2: ABTx135 (antibody, human IgG1, kappa, L234A L235A)
heavy: QVQLVQSGAAVKKPGESLKISCKGSGYRFTSYWIGWVRQMPGKGLEWMGIIYPGDSDTRYSPSFQGQVTISAGKSISTAYLQWSSLKASDTAMYYCARHGRGYNGYEGAFDIWGQGTMVTVSSASTKGPSVFPLAPSSKSTSGGTAALGCLVKDYFPEPVTVSWNSGALTSGVHTFPAVLQSSGLYSLSSVVTVPSSSLGTQTYICNVNHKPSNTKVDKKV[human IgG1 Fc with L234A L235A D265A (EU numbers) not written out]
light: B1 light
notes: ABTx052 with LALADA in the Fc; also called ABTx052_LALADA; mAb-7 with an LALADA Fc domain alteration
B3: ABTx271 (antibody, human IgG1, kappa)
heavy: B1 heavy with N104D, G105A, E107D
light: B1 light with F91T
B4: ABTx309 (antibody, human IgG1, kappa, L234A L235A)
heavy: B2 heavy with N104D, G105A, E107D
light: B1 light with F91T
notes: Fc with LALADA

Legend:
[1] = target: T1, Cyno CD117 (cynomolgus, UniProt F6V858 26-520 (rhesus entry)); assay: KD, method not stated (Table 8B)
T1 construct: also called cynomolgus CD117

[2] = target: T2, Wild type CD117 purified protein (human, UniProt P10721 partial chain, limits assumed); assay: KD, method not stated (Table 8B)
T2 construct: Protein used in BLI/kinetics and cryo-EM; also called wt CD117; Wt CD117

[3] = target: T2, Wild type CD117 purified protein; assay: summary Table 75 (repeats Table 71)
[4] = target: T3, Wild type CD117 expressed on cells (M07e cells, unedited human CD34+ HSPCs) (human, UniProt P10721 26-976); assay: summary Table 75, EC50 on M07e cells
T3 construct: Endogenous receptor on cells; also called wtCD117; WT CD117

[5] = target: T3, Wild type CD117 expressed on cells …; assay: flow cytometry (MFI) on M07e cells (FIG. 59)
[6] = target: T2, Wild type CD117 purified protein; assay: binding kinetics to wild-type CD117 (FIG. 54)
[7] = target: T2, Wild type CD117 purified protein; assay: monovalent KD, CD117 titrated (FIGS. 73A-73E)
[8] = target: T2, Wild type CD117 purified protein; assay: binding kinetics, antibody 333.3 to 5.2 nM (FIGS. 58A-58D)
[9] = target: T3, Wild type CD117 expressed on cells …; assay: cell-based or functional assay
[10] = target: T3, Wild type CD117 expressed on cells …; assay: cell-based or functional assay; remark: listed apart in the source
[11] = target: T2, Wild type CD117 purified protein; assay: binding kinetics, FIGS. 45A-45K
[12] = target: T3, Wild type CD117 expressed on cells …; assay: flow cytometry on M07e cells expressing wild type CD117, 1 h (FIG. 87A)
[13] = target: wild type CD117 extracellular domain (ECD) protein (human, UniProt P10721 partial chain); assay: BLI (Octet), antibody on AHC biosensor, CD117 ECD titrated 1:2 from 345 nM
Description: The AHC biosensor data was analyzed using Octet Analysis Studio software.

[14] = target: T4, CC128 variant of CD117 (Y259C + N260D) purified protein (human, UniProt P10721 partial chain, limits assumed); assay: BLI (Octet), CC128 variant on SA biosensor, antibody titrated 1:2 from 2.5 µM
T4 construct: also called CC128-edited CD117 as purified protein
Description: Binding to the CC128 variant of CD117 was determined using streptavidin (SA) biosensors, which were allowed to bind the CC128 variant from a 5 μg/ml solution thereof. The SA biosensors were then titrated with monoclonal antibodies starting at 2.5 μM and using titration increments of 1:2. Data was analyzed using the Octet Analysis Studio Software.

T2 sequence (P10721 26-520 limits assumed): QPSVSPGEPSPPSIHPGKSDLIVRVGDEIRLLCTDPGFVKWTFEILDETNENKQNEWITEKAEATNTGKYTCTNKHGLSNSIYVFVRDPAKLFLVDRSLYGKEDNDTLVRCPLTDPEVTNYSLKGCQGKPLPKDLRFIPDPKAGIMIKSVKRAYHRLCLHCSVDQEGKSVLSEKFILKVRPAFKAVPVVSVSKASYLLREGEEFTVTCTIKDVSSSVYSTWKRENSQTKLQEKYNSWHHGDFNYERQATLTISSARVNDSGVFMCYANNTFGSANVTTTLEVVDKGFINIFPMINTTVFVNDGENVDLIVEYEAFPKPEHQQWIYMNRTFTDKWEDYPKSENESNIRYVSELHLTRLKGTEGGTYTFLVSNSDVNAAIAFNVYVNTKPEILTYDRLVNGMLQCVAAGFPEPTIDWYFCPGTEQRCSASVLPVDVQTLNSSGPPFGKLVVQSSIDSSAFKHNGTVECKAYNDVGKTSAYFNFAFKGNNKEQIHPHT

| Binder | EC50 [5] [nM] | koff [8] [s⁻¹] | kon [8] [M⁻¹ s⁻¹] | IC50 [M], viability of unedited HSCs with 100 ng/mL SCF, 5-7 days [9] [M] | EC50 [12] [nM] | Kd [13] [nM] | koff [13] [s⁻¹] | kon [13] [M⁻¹ s⁻¹] | Kd [14] [nM] | other results |
| --- | --- | --- | --- | --- | --- | --- | --- | --- | --- | --- |
| B1 | 0.126 | 0.00165 | 228000 | – | – | – | – | – | – | Kd [1]: < 0.001 nM; Kd [2]: < 0.001 nM; Kd [3]: 8.05 nM; EC50 [4]: 0.17 nM; koff [6]: 0.00118 s⁻¹; kon [6]: 127000 M⁻¹ s⁻¹; Kd [7]: 8.05 nM; koff [7]: 0.00247 s⁻¹; kon [7]: 307000 M⁻¹ s⁻¹ |
| B2 | – | – | – | 5.34e-07 | 0.154 | 5.6 | 0.00911 | 1.63e+06 | 26.6 | IC50 (M), depletion of human CD34+ HSPCs [10]: 1.36e-06 M; Kd [11]: 0.26 nM; koff [11]: 0.000176 s⁻¹; kon [11]: 677000 M⁻¹ s⁻¹ |
| B3 | 0.0836 | 0.00234 | 246000 | 1.64e-06 | – | – | – | – | – | Kd [8]: 9.53 nM |
| B4 | – | – | – | – | 0.168 | 5.52 | 0.00814 | 1.47e+06 | 4.67 | – |

From patent US20260166085A1 (BEAM THERAPEUTICS, published 2026)
